# PubChem BioAssay AID1030 (National Center for Advancing Translational Sciences (NCATS), 2008)
# Screen size: about 220,000 compounds; about 16,000 (7.3%) were called active. Inconclusive means that the source gave no clear call. Such entries were picked first, then a sample of the others. Calls follow the shape of the dose curve; as a rule, active = well fitted inhibition curve with a large enough effect (not every such curve was filed as active); inconclusive = small, poorly fitted or top-dose-only effect, or another doubt; inactive = no such curve, though single readings can be large or run the other way. No potency is given beside an inconclusive call; the fits are too rough.
# Biological target: Aldehyde dehydrogenase 1A1 (Homo sapiens) (UniProt P00352)
# Experiment: qHTS Assay for Inhibitors of Aldehyde Dehydrogenase 1 (ALDH1A1);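 as to activity, negative = inhibition: plate controls were no enzyme wells and a reference inhibitor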
# Settings: Purified ALDH1A1, NADH fluorescence, propionaldehyde substrate; series mostly up to 75.3 µM
# Potency is read from the fitted curve at half-maximal effect; tags tell the direction and shape of the fitted curve.
# Chain of UniProt P00352 (P00352 whole entry, looked up): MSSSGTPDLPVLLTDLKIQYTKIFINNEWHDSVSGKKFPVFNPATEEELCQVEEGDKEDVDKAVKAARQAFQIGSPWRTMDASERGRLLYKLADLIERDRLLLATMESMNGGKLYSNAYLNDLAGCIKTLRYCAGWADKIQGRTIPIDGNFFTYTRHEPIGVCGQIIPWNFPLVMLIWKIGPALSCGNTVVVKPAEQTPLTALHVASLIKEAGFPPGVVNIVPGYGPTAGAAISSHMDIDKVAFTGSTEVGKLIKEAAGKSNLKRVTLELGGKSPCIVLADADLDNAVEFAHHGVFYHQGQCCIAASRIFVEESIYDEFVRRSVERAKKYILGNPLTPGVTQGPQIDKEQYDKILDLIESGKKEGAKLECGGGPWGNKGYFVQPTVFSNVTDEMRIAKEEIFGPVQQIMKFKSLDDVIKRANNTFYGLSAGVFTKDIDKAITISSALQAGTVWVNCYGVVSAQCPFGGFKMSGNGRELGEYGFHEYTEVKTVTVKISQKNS
Structure (SMILES),Potency,"activity, negative = inhibition"
Cc1cc(NCCC(C)C)n2nc(C)c(-c3ccccc3)c2n1,"inconclusive [inhibitor, partial curve]",–
COc1ccc2[nH]c(C)c(CCNC(=S)Nc3cccc(C)c3C)c2c1,inactive,–
OC(CNCc1ccccc1Cl)C(F)(F)F (centres undefined),inactive,–
O=C1CCCN1CCCNCC(=O)N1c2ccccc2Sc2ccccc21,active: 35.5 µM,–
O=C(CSc1n[nH]c(-c2ccco2)n1)N1c2ccccc2Sc2ccccc21,active: 7.94 µM,–
COCCCN1C(=O)c2ccc(C(=O)Nc3ccccc3OC)cc2C1=O,"inconclusive [inhibitor, partial curve]",–
COc1cccc(OC)c1Nc1nc(C)nc2c1nnn2Cc1ccccc1Cl,inactive,–
CCCCCCCCCCS(=O)(=O)N/N=C/c1ccccc1OC,"inconclusive [inhibitor, single point]",–
CCCC=O,active: 3.55 µM,–
Cc1cc(Cl)ccc1C(=O)C1CCCN(C(=O)c2snnc2C)C1 (centres undefined),"inconclusive [inhibitor, partial curve, poor fit]",–
Cc1ccc(N=Cc2c(O)[nH]c3ccccc23)c([N+](=O)[O-])c1,inactive,–
COC(=O)C1=CN(C(C)C)C=C(C(=O)OC)C1c1cc(Br)c(OC)c(OC)c1,"inconclusive [inhibitor, partial curve]",–
O=C(c1ccc2c(c1)OCCO2)N1CCCC(CNS(=O)(=O)c2cccs2)C1 (centres undefined),active: 2.24 µM,–
COc1ccc(-c2ccccc2C2NC(C(=O)O)CCC2C)cc1 (centres undefined),–,inactive: 12% [at 13.5 µM]
COC(=O)C1=C(C)N(CCc2c[nH]c3ccccc23)C(=O)C1,"inconclusive [inhibitor, single point]",–
CCOC(=O)C1=C(C)NC(=O)NC1c1ccc(N(CC)CC)cc1 (centres undefined),inactive,–
Cc1ccc(C2CC(c3ccco3)n3nc(N)nc3N2)cc1 (centres undefined),"inconclusive [inhibitor, full curve, poor fit]",–
Cc1cccc(NC(=O)c2cc(S(=O)(=O)c3ccccc3)ccc2Cl)c1,"inconclusive [inhibitor, partial curve]",–
CCc1ccc(Nc2nc(N)nc(CSc3nnnn3-c3ccccc3)n2)cc1,"inconclusive [inhibitor, full curve]",–
Cc1cccc(C(=O)Nc2nnc(-c3ccncc3)o2)c1,"inconclusive [inhibitor, partial curve]",–
CC(O)CNc1nc2ccccc2n1-c1ncnc2sc3c(c12)CCC3 (centres undefined),inactive,–
CSc1ccccc1C(=O)Nc1cccc(C(C)=O)c1,"inconclusive [inhibitor, single point]",–
Cc1c(Cl)c([N+](=O)[O-])nn1CCCC(=O)Nc1sc2c(c1C#N)CCC2,active: 12.6 µM,–
COC(=O)NC(CC(C)=O)c1cccs1 (centres undefined),"inconclusive [inhibitor, full curve, poor fit]",–
CCOc1cc(/C=C2\N=C(SC)SC2=O)cc([N+](=O)[O-])c1OC(C)=O,active: 28.2 µM,–

Structure (SMILES),Potency,"activity, negative = inhibition"
Cc1ccc(-c2cc(C(F)(F)F)n3nc(C(=O)NCCCn4ccnc4)cc3n2)cc1C,"inconclusive [inhibitor, partial curve]",–
O=C(CSc1cccc[n+]1[O-])c1ccccc1Br,inactive,–
O=C(NCc1cccs1)C1CC(=O)N(c2ccc(Cl)cc2)C1 (centres undefined),inactive,–
C[N+](C)(CC#Cc1ccccc1)CC(=O)c1ccccc1,inactive,–
CC(=O)Nc1nc(-c2ccccc2)c(-c2ccccc2)o1,"inconclusive [inhibitor, single point]",–
COCCNC(=O)c1c(N)n(CCCn2ccnc2)c2nc3ccccc3nc12,"inconclusive [inhibitor, partial curve]",–
CCc1ccc2c(COC(=O)CNS(=O)(=O)c3ccc(NC(C)=O)cc3)cc(=O)oc2c1,"inconclusive [inhibitor, partial curve]",–
CCC(Sc1nc2ccccc2o1)C(=O)Nc1nnc(C)s1 (centres undefined),inactive,–
Cc1nn(CC(=O)NCc2cc3ccccc3[nH]2)c(C)c1[N+](=O)[O-],"inconclusive [inhibitor, single point]",–
CN(C)c1ccc(C(CNC(=O)c2ccc(F)cc2)c2c[nH]c3ccccc23)cc1 (centres undefined),"inconclusive [inhibitor, partial curve]",–
Oc1cc2ccccc2nc1-c1ccccc1Cl,"inconclusive [inhibitor, single point]",–
O=C(COc1ccc2c(-c3ccccc3)cc(=O)oc2c1)NCc1cccs1,"inconclusive [inhibitor, partial curve]",–
c1ccc(Cc2nnc3sc(-c4ccco4)nn23)cc1,"inconclusive [inhibitor, single point]",–
COc1ccc(Cn2c(=O)[nH]c3cc(C(=O)NC4CCCC4)ccc3c2=O)cc1,"inconclusive [inhibitor, full curve]",–
O=S(=O)(c1ccccc1)C(/C=N\O)/C=C/c1ccccc1 (centres undefined),active: 11.2 µM,–
Cc1cc2nc(C3CCCN(C(=S)Nc4ccccc4C)C3)[nH]c2cc1C (centres undefined),inactive,–
CCOc1ccc(NC(=S)N2CCc3cc(OC)c(OC)cc3C2COc2ccc3c(C)cc(=O)oc3c2)cc1 (centres undefined),"inconclusive [inhibitor, partial curve]",–
CCc1ccc(C(=O)CSc2ncn[nH]2)cc1,"inconclusive [inhibitor, single point]",–
Cc1nnc(SCC(=O)c2ccc(Cl)cc2)s1,"inconclusive [inhibitor, partial curve]",–
Cc1ccc(C2C(C(=O)c3cc4ccccc4o3)=C(O)C(=O)N2CCN2CCOCC2)o1 (centres undefined),active: 14.1 µM,–
Cc1cc(C)n2c3c(c(C#N)c2n1)CCCC3,"inconclusive [inhibitor, single point]",–
CC(C)C(c1nnnn1Cc1ccccc1)N1CCc2ccccc2C1 (centres undefined),active: 10 µM,–
COc1cc(/C=C/C(=O)Nc2ccc(C(C)=O)cc2)cc(OC)c1OC,"inconclusive [inhibitor, partial curve]",–
COc1ccc(C(=O)N/N=C/c2ccc3cccc(O)c3n2)cc1,"inconclusive [inhibitor, partial curve]",–
Cc1cc(C(=O)COC(=O)c2ccc(O)cc2)c(C)n1CCc1ccc(F)cc1,"inconclusive [inhibitor, single point]",–

Structure (SMILES),Potency,"activity, negative = inhibition"
Oc1ccc(Nc2nc(N3CCCC3)c3ccccc3n2)cc1,inactive,–
COc1ccc(C2CC(C(F)(F)F)n3nc(C(=O)O)c(Br)c3N2)cc1 (centres undefined),inactive,–
CCOC(=O)C(/C=N/c1cc(C)nn1-c1ccccc1)=C(\C)O,inactive,–
O=C(N1CCCCCC1)N1CCN(S(=O)(=O)c2ccccc2)CC1,active: 6.31 µM,–
O=C(c1ccco1)N1CCN(Cc2nc3cc(Cl)ccc3c(=O)[nH]2)CC1,"inconclusive [inhibitor, single point]",–
c1ccc(Cn2ncc3c(NCc4ccco4)ncnc32)cc1,"inconclusive [inhibitor, single point]",–
N/C(=N\O)c1ccc(NC(=O)c2cccs2)cc1,"inconclusive [inhibitor, single point]",–
Cc1cc2nc(-c3cccnc3SCC(=O)NC(C)C)[nH]c2cc1C,"inconclusive [inhibitor, single point]",–
N#CCCn1c(=S)[nH]c2ccccc21,"inconclusive [inhibitor, single point]",–
Cc1ccc(Cl)cc1NC(=O)COC(=O)CC(C)(C)C,active: 8.91 µM,–
O=C(NC1CC1)c1ccc(S(=O)(=O)NC2CCCCCC2)cc1,inactive,–
N#Cc1cc2c(nc1SCC(=O)N1CCCCC1)CCCC2,"inconclusive [inhibitor, single point]",–
Cc1cc(C(=O)CN(Cc2ccc(F)cc2)S(=O)(=O)c2ccc3c(c2)OCCO3)c(C)n1C,"inconclusive [inhibitor, single point]",–
COc1cc(C(=O)Nc2ccc(S(=O)(=O)NC(C)(C)C)cc2)cc(OC)c1OC,inactive,–
Cc1ccc(Cl)cc1N1CCN(CC(=O)Nc2ccc3[nH]c(=O)[nH]c3c2)CC1,active: 22.4 µM,–
CC1(C)C2CC=C(/C=N/NC(=O)C3CC3)C1C2 (centres undefined),"inconclusive [inhibitor, full curve, poor fit]",–
CCOC(=O)C1=NNC(C(=O)c2ccc(C)cc2)C1c1ccc(C)cc1 (centres undefined),"inconclusive [inhibitor, single point]",–
CCOC(=O)c1cc2sc(C)cc2n1CC(=O)Nc1ccc2c(c1)OCCO2,"inconclusive [inhibitor, single point]",–
N=c1sccn1CC(=O)Nc1ccc(S(=O)(=O)N2CCOCC2)cc1,"inconclusive [inhibitor, single point]",–
Cc1ccc(C(=O)Nc2nc3ccc(S(C)(=O)=O)cc3s2)s1,"inconclusive [inhibitor, single point]",–
CC(C)CN(Cc1c(O)ccc2c3c(c(=O)oc12)CCC3)CC(C)C,"inconclusive [inhibitor, full curve]",–
CCN1CCN(c2ncnc3c2cnn3-c2ccccc2)CC1,"inconclusive [inhibitor, single point]",–
O=C(Oc1ccccc1C(=S)N1CCCCC1)c1cc([N+](=O)[O-])cc([N+](=O)[O-])c1,active: 8.91 µM,–
Cc1nc2c(C#N)c(C)[nH]n2c(=O)c1Cc1ccccc1,inactive,–
